{"source": "the supplement of paper PMC11417369", "note": "This is one part of the list.", "data": [{"system": "PfAP2-HC AP2 domain (GST-tagged)", "experiment": "gcPBM binding intensity (ln(normalized median fluorescence intensity)); higher = stronger DNA binding", "method_in_brief": "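For binding intensity, the highest Masliner-normalised natural-log median intensity across replicate spots of either probe orientation was taken. Protein bound to the array was stained with Alexa488 anti-GST antibody and scanned at 488 nm. The protein, GST-tagged P. falciparum DNA-binding domains from E. coli at about 25 μg on average, had been applied for 1 h to an Agilent 4 × 180k array of primer-extended double-stranded 36-bp intergenic genomic probes and negative controls.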", "values": [{"sequence": "AATTCATTTAAAAGTTGTACAAGCTTAATAAAAAAA [XGTACX_site6073]", "gcPBM binding intensity (ln)": 9.68}, {"sequence": "ATATACACATAAAGTAGTACACCTGAAATTTTTTTT [XGTACX_site2951]", "gcPBM binding intensity (ln)": 9.73}, {"sequence": "GAGGATATATTATATGTACACACATATATAACGGAT [CACACA_site8361]", "gcPBM binding intensity (ln)": 9.94}, {"sequence": "GTATTTTTTTTAATATGTACATATAAAATATTTTAT [XGTACX_site8329]", "gcPBM binding intensity (ln)": 9.77}, {"sequence": "AATACAATTTATAACACACACACAATAATACATATA [CACACA_site1252]", "gcPBM binding intensity (ln)": 10.5}, {"sequence": "ATATAAGTTTATATATGTACATATATATATTATATA [XGTACX_site2068]", "gcPBM binding intensity (ln)": 9.62}, {"sequence": "AATATATGAATTAGAAGTACAAATAAATATTTATTT [XGTACX_site2062]", "gcPBM binding intensity (ln)": 9.53}, {"sequence": "TTAATCATAAAAGTCACACATAATAAGAAAAAGCTT [CACACA_site4616]", "gcPBM binding intensity (ln)": 9.7}, {"sequence": "CCCATGCATTTTTGCACACACATATATATATAAATA [CACACA_site1430]", "gcPBM binding intensity (ln)": 9.86}, {"sequence": "AATTAAAAATATAAATGTACATATATGTAAAACTTT [XGTACX_site123]", "gcPBM binding intensity (ln)": 9.97}, {"sequence": "AAGAGTTTGAAGTTTGCACACTACGTTAAAAATAAA [CACACA_site3939]", "gcPBM binding intensity (ln)": 9.66}, {"sequence": "AATATAATGTAATATACACACATATATTTCTCTTTT [CACACA_site5451]", "gcPBM binding intensity (ln)": 9.87}, {"sequence": "CCACATTTTACAGACACACACAATTTATATTACGGT [CACACA_site1894]", "gcPBM binding intensity (ln)": 10.4}, {"sequence": "AAAAATTTATTTTTAGGTACACAATTGAATTATTTA [XGTACX_site7008]", "gcPBM binding intensity (ln)": 9.39}, {"sequence": "TGTAGTCTGGAGAAAAGTACATAGTATCTGATAACC [XGTACX_site2018]", "gcPBM binding intensity (ln)": 9.56}, {"sequence": "GTGCATATATGATATACACACAATATAATAGTATGT [CACACA_site2460]", "gcPBM binding intensity (ln)": 9.82}, {"sequence": "TGAAGAAAATATTAATGTACATATTATATATATATA [XGTACX_site5497]", "gcPBM binding intensity (ln)": 9.56}, {"sequence": "CCTCCCATTTTTACACGTACACATTTAAAATAGACT [XGTACX_site5640]", "gcPBM binding intensity (ln)": 9.73}, {"sequence": "ATAATAAAAAAAAAATGTACATAAATCTAAAATCCT [XGTACX_site5823]", "gcPBM binding intensity (ln)": 9.7}, {"sequence": "ATATATTTAAATAAAAGTACGTAAAGGTATATTTAA [XGTACX_site8088]", "gcPBM binding intensity (ln)": 9.85}, {"sequence": "ATTTAAAAAAAAATGGCACACATTTTAATTTTATGT [CACACA_site1740]", "gcPBM binding intensity (ln)": 9.74}, {"sequence": "TTTTTAATGATCAGACGTACAGTTATGAAGAAATTT [XGTACX_site6394]", "gcPBM binding intensity (ln)": 9.5}, {"sequence": "TTGTGTCATATATTTTGTAATCAAAATAATTTTATT [TGCATGCA_negctrl_site307]", "gcPBM binding intensity (ln)": 9.56}, {"sequence": "TTTTTGTTTCGTTACGCATGCCAAAAGTAAAAATAT [TGCATGCA_site536]", "gcPBM binding intensity (ln)": 9.52}, {"sequence": "TATTATAAATTAATTTTAAACTTTATTATTATGATA [GTGCAC_negctrl_site389]", "gcPBM binding intensity (ln)": 9.22}]}]}
